Source: the supplement of paper PMC10369915
The other results are listed elsewhere or left out. Rule as the data show it: active = 3.2 or more and inactive = the rest. The signal is at background level for most entries.

target: SHP2 C-SH2 domain E139D; assay: enrichment score (SH2-bound / input frequency) (ratio); bacterial display of known human phosphotyrosine sites (pTyr-Var adds point mutants) read by sequencing; higher = stronger binding; tyrosines were phosphorylated by kinases first; settings: peptide library: pTyr-Var
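Also: displayed peptides selected on beads carrying the immobilized SH2 domain, with library peptides lacking any tyrosine serving as negative controls.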

Enrichment score, inactive:
TVINKYQGKLF [HGD_Y249] 0.999
RFLRGYRQYAY [HLA-A_Y137_D140Y] 0.243
FRPPFYHRNCM [HGD_Y334_YF] 2.97
FSPPFYHRNCM [HGD_Y334_R330S_YF] 1.34
RLLRGYRQDAF [HLA-A_Y137_F133L_YF] 0.196
IEDNKYTAREG [HCK_Y411_E410K] 0.636
SHGKQYRVPSD [HHIPL2_Y395_R394Q] 0.574
TTKGSYSLYVR [HCK_Y180_S183Y] 0.839
TCRPPYFHRNC [HGD_Y333_F329C_YF] 2.36
TFSPPYFHRNC [HGD_Y333_R330S_YF] 0.931
FRPPYYHRDCM [HGD_Y334_N337D] 2.21
CPFNLYAEQFS [HGD_Y40_L44F_YF] 1.33
APSEFYDGDHD [HDAC3_Y414_N411S] 0.715
SDGKRYRVPSD [HHIPL2_Y395_H391D] 0.595
QYQEKYKQMEQ [HCN4_Y531_V534M] 0.739
RELSWYRGRRP [HESX1_Y106] 0.17
FSPPYYHRNCM [HGD_Y334_R330S] 1.4
TFSPPYYHRNC [HGD_Y333_R330S] 0.842

target: SHP2 C-SH2 domain wild-type; assay: as above; settings: peptide library: pTyr-Var

Enrichment score, inactive:
TVINKYQGKLF [HGD_Y249] 0.8
RFLRGYRQYAY [HLA-A_Y137_D140Y] 0.162
FRPPFYHRNCM [HGD_Y334_YF] 2.39
FSPPFYHRNCM [HGD_Y334_R330S_YF] 1.18
RLLRGYRQDAF [HLA-A_Y137_F133L_YF] 0.236
IEDNKYTAREG [HCK_Y411_E410K] 0.577
SHGKQYRVPSD [HHIPL2_Y395_R394Q] 0.574
TTKGSYSLYVR [HCK_Y180_S183Y] 0.818
TCRPPYFHRNC [HGD_Y333_F329C_YF] 1.82
TFSPPYFHRNC [HGD_Y333_R330S_YF] 0.829
FRPPYYHRDCM [HGD_Y334_N337D] 2.34
CPFNLYAEQFS [HGD_Y40_L44F_YF] 1.7
APSEFYDGDHD [HDAC3_Y414_N411S] 0.536
SDGKRYRVPSD [HHIPL2_Y395_H391D] 0.725
QYQEKYKQMEQ [HCN4_Y531_V534M] 0.816
RELSWYRGRRP [HESX1_Y106] 0.334
FSPPYYHRNCM [HGD_Y334_R330S] 1.3
TFSPPYYHRNC [HGD_Y333_R330S] 0.862

target: SHP2 N-SH2 domain L43F; assay: as above; settings: peptide library: pTyr-Var

Enrichment score, inactive:
TVINKYQGKLF [HGD_Y249] 0.782
RFLRGYRQYAY [HLA-A_Y137_D140Y] 0.179
FRPPFYHRNCM [HGD_Y334_YF] 2.76
FSPPFYHRNCM [HGD_Y334_R330S_YF] 1.11
RLLRGYRQDAF [HLA-A_Y137_F133L_YF] 0.255
IEDNKYTAREG [HCK_Y411_E410K] 0.707
SHGKQYRVPSD [HHIPL2_Y395_R394Q] 0.657
TTKGSYSLYVR [HCK_Y180_S183Y] 0.728
TCRPPYFHRNC [HGD_Y333_F329C_YF] 1.81
TFSPPYFHRNC [HGD_Y333_R330S_YF] 0.838
FRPPYYHRDCM [HGD_Y334_N337D] 2.1
CPFNLYAEQFS [HGD_Y40_L44F_YF] 1.29
APSEFYDGDHD [HDAC3_Y414_N411S] 0.624
SDGKRYRVPSD [HHIPL2_Y395_H391D] 0.551
QYQEKYKQMEQ [HCN4_Y531_V534M] 0.49
RELSWYRGRRP [HESX1_Y106] 0.198
FSPPYYHRNCM [HGD_Y334_R330S] 1.17
TFSPPYYHRNC [HGD_Y333_R330S] 0.746

target: SHP2 N-SH2 domain T42A; assay: as above; settings: peptide library: pTyr-Var

Enrichment score, inactive:
TVINKYQGKLF [HGD_Y249] 0.684
RFLRGYRQYAY [HLA-A_Y137_D140Y] 0.111
FRPPFYHRNCM [HGD_Y334_YF] 2.37
FSPPFYHRNCM [HGD_Y334_R330S_YF] 0.956
RLLRGYRQDAF [HLA-A_Y137_F133L_YF] 0.17
IEDNKYTAREG [HCK_Y411_E410K] 0.552
SHGKQYRVPSD [HHIPL2_Y395_R394Q] 0.562
TTKGSYSLYVR [HCK_Y180_S183Y] 0.632
TCRPPYFHRNC [HGD_Y333_F329C_YF] 1.71
TFSPPYFHRNC [HGD_Y333_R330S_YF] 1.72
FRPPYYHRDCM [HGD_Y334_N337D] 2.06
CPFNLYAEQFS [HGD_Y40_L44F_YF] 1.01
APSEFYDGDHD [HDAC3_Y414_N411S] 0.534
SDGKRYRVPSD [HHIPL2_Y395_H391D] 0.574
QYQEKYKQMEQ [HCN4_Y531_V534M] 0.539
RELSWYRGRRP [HESX1_Y106] 0.279
FSPPYYHRNCM [HGD_Y334_R330S] 1.07
TFSPPYYHRNC [HGD_Y333_R330S] 0.645

target: SHP2 N-SH2 domain T52S; assay: as above; settings: peptide library: pTyr-Var

Enrichment score, inactive:
TVINKYQGKLF [HGD_Y249] 0.674
RFLRGYRQYAY [HLA-A_Y137_D140Y] 0.168
FRPPFYHRNCM [HGD_Y334_YF] 2.91
FSPPFYHRNCM [HGD_Y334_R330S_YF] 0.982
RLLRGYRQDAF [HLA-A_Y137_F133L_YF] 0.263
IEDNKYTAREG [HCK_Y411_E410K] 0.318
SHGKQYRVPSD [HHIPL2_Y395_R394Q] 0.613
TTKGSYSLYVR [HCK_Y180_S183Y] 0.777
TCRPPYFHRNC [HGD_Y333_F329C_YF] 1.95
TFSPPYFHRNC [HGD_Y333_R330S_YF] 1.11
FRPPYYHRDCM [HGD_Y334_N337D] 2.26
CPFNLYAEQFS [HGD_Y40_L44F_YF] 1.16
APSEFYDGDHD [HDAC3_Y414_N411S] 0.694
SDGKRYRVPSD [HHIPL2_Y395_H391D] 0.484
QYQEKYKQMEQ [HCN4_Y531_V534M] 0.788
RELSWYRGRRP [HESX1_Y106] 0.208
FSPPYYHRNCM [HGD_Y334_R330S] 1.03
TFSPPYYHRNC [HGD_Y333_R330S] 0.691

target: SHP2 N-SH2 domain wild-type; assay: as above; settings: peptide library: pTyr-Var

Enrichment score, inactive:
TVINKYQGKLF [HGD_Y249] 0.898
RFLRGYRQYAY [HLA-A_Y137_D140Y] 0.334
FRPPFYHRNCM [HGD_Y334_YF] 2.29
FSPPFYHRNCM [HGD_Y334_R330S_YF] 1.24
RLLRGYRQDAF [HLA-A_Y137_F133L_YF] 0.235
IEDNKYTAREG [HCK_Y411_E410K] 0.876
SHGKQYRVPSD [HHIPL2_Y395_R394Q] 0.635
TTKGSYSLYVR [HCK_Y180_S183Y] 0.932
TCRPPYFHRNC [HGD_Y333_F329C_YF] 1.53
TFSPPYFHRNC [HGD_Y333_R330S_YF] 1.06
FRPPYYHRDCM [HGD_Y334_N337D] 1.99
CPFNLYAEQFS [HGD_Y40_L44F_YF] 1.45
APSEFYDGDHD [HDAC3_Y414_N411S] 0.597
SDGKRYRVPSD [HHIPL2_Y395_H391D] 0.848
QYQEKYKQMEQ [HCN4_Y531_V534M] 0.879
RELSWYRGRRP [HESX1_Y106] 0.289
FSPPYYHRNCM [HGD_Y334_R330S] 1.47
TFSPPYYHRNC [HGD_Y333_R330S] 0.859
